Among all 48,000 compounds or so, about 1,200 (2.5%) were called active. Not shown: some 2% with an inconclusive outcome.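 The calls were made as follows: active = activation of at least 60% and not above a set upper limit (about 1 call in 100 departs from these limits); inconclusive = activation of 40% to 60%, or above that upper limit; inactive = activation under 40%.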 This is one part of the list.

This assay has as its target Probable G-protein coupled receptor 32 (Homo sapiens) (UniProt O75388). Nature of the assay: qHTS for Agonists of Human Resolvin D1 Receptor DRV1. Also: 0% is about no effect. The following applies: CHO-K1 GPR32 beta-arrestin PathHunter luminescence, 90 min; at 76.9 µM; active compounds read high; zero percent set by DMSO-only wells. In short, it runs like this: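 Step 1: seed CHO-K1 GPR32 beta-arrestin cells, 2,500/well, overnight at 37 °C. Step 2: add compounds, 90 min at 37 °C. Step 3: detection reagent, 1 h ambient, then luminescence.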
Chain of UniProt O75388 (O75388 whole entry, looked up): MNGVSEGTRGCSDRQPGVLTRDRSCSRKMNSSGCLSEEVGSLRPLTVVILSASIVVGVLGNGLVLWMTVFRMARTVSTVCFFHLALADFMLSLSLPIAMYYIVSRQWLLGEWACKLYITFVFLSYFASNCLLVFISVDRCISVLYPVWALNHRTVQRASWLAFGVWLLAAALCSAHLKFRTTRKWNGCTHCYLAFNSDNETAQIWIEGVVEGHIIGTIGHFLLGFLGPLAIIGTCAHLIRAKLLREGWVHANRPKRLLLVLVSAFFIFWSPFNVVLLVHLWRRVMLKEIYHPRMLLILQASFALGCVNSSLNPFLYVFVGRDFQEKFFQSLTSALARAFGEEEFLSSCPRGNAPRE
(Quantitative high-throughput screening tests each substance at several concentrations.)
With `Cc1ccc(-n2c(=O)c3ccc(C(=O)NCc4ccccc4Cl)cc3n(CC(=O)Nc3cccc(Cl)c3)c2=O)cc1`, the activation was inactive: -8.41%.

In the case of `Cc1nc2cc(C(=O)NCCC3=CCCCC3)ccc2n1-c1ccc(Br)cc1`, the activation is inactive: -26.9%.

As for `CSc1nc(Nc2ccc(C)cc2C)cc(-c2ccccc2)n1`, the activation was inactive: -13.6%.

Take `COC(=O)c1cc2c(cc1NC(=O)c1cnn(-c3ccccc3)c1-n1cccc1)OCO2`: the activation was inactive: 5.73%.

Take `Cc1cccc(C(=O)Nc2nnc(S(=O)(=O)N(C)Cc3ccc(Cl)cc3)s2)c1`: the activation was inactive: 36.2%.

As to `CCCCCNC(=O)c1ccc2c(c1)ncn2-c1cccc(C)c1`, the activation was inactive: 1.92%.

With `O=C1COc2ccc(-c3cc(-c4ccc(Cl)cc4)c4c(n3)-c3ccccc3OC4)cc2N1`, the activation was inactive: -8.77%.

Consider `CCOC(=O)CNC(=O)CSc1cn(CC(=O)N2CCCCCC2)c2ccccc12`, for which the activation was inactive: -10.7%.

`CN(Cc1ccccc1)C(=O)C1CCN(S(=O)(=O)c2ccc3c(c2)oc(=O)n3C)CC1`: the activation was inactive: -0.643%.

Turning to `CCC1NC(=O)c2cc(S(N)(=O)=O)c(Cl)cc2N1` (stereo not given), the activation was inactive: 5.77%.

Regarding `Cc1cccc(Cn2c(=O)n(CC3CCC(C(=O)NC(C)C)CC3)c(=O)c3sccc32)c1` (stereo not given), the activation is inactive: 15%.

`COc1ccc(NC(=O)CN2C(=O)C(C)(C)c3ccccc32)cc1Cl`: the activation is active: 103%.

In the case of `CSc1ccc(CCNC(=O)C2=C(C)C(=O)OC23CCCCC3)cc1`, the activation is inactive: -15.1%.

In the case of `COc1cc(CNC(=O)c2sc3ncccc3c2-n2cccc2)cc(OC)c1OC`, the activation was inactive: 8.5%.

`COc1cccc(C2CC(=O)Nc3cc(OC)c(OC)c(OC)c32)c1OC(C)C` (stereo not given): the activation is inactive: 9.27%.

Turning to `N#Cc1nc(-c2ccc(COc3ccccc3)o2)oc1NCc1cccnc1`, the activation is inactive: -3.68%.

As to `COc1ccccc1CN1CCC(CNS(=O)(=O)c2cc(-c3onc(C)c3C)ccc2OC)CC1`, the activation is inactive: -2.97%.

As for `Cc1nn(-c2ccccc2)c(OC(=O)c2cccc(Br)c2)c1S(=O)(=O)c1ccccc1`, the activation was inactive: -14.7%.

As for `Cc1ccc(-c2nnc(Nc3ccc(Br)cc3)c3ccccc23)cc1S(=O)(=O)NCC1CCCO1` (stereo not given), the activation was inactive: -27.7%.

`Cc1nc(N2CCCC2)c2c(C(=O)N3CCN(c4ccc(F)cc4)CC3)c(C)oc2n1`: the activation is inactive: -18.9%.

In the case of `COC(=O)c1ccc(OCC2c3cc(OC)c(OC)cc3CCN2C(=O)c2ccccc2C)cc1` (stereo not given), the activation is inactive: -2.88%.

Take `COc1ccccc1N1CCN(CCCCNC(=O)c2ccc3ccccc3c2)CC1`: the activation was inactive: -6.46%.

`CC(=O)Oc1ccc(C2(c3ccc(OC(C)=O)cc3)C(=O)Nc3ccccc32)cc1`: the activation was inactive: -11.2%.

Consider `CCc1cccc(CC)c1NC(=O)c1c(C)oc2ccc(O)c(CN3CCN(C)CC3)c12`, for which the activation was inactive: 6.25%.

Consider `Cc1cccc(N2CCN(C(=O)Cn3ncc4c3-c3cc(C)ccc3OC4)CC2C)c1` (stereo not given), for which the activation is inactive: 2.24%.

For the compound `CCC(C)NC(=O)Cn1c(=O)n(CCCCCC(=O)Nc2ccccc2)c(=O)c2sccc21` (stereo not given), the activation was inactive: -23.3%.

`CCCCOC(=O)c1ccc(OC(=O)c2sc3ncn(Cc4cccc(F)c4)c(=O)c3c2C)cc1`: the activation is inactive: 9.99%.

As for `CCOC(=O)c1[nH]c(C)c(CCC(=O)Nc2ccccc2OCC)c1C`, the activation was inactive: -17.1%.

As for `CCc1cccc(C)c1NC(=O)CCCn1c(C)c2cnn(-c3ccccc3)c(=O)c2c1C`, the activation was inactive: -10.4%.

Turning to `CCCN(C(=O)Cc1nc(-c2ccc(OC)cc2)no1)c1ccccc1C`, the activation was inactive: -15.5%.

As to `Cc1cccc(N(C)C(=S)Oc2ccc3c(c2)C2CCC3C2)c1` (stereo not given), the activation was inactive: -0.0232%.

`CN1C(=O)CC(C(=O)Nc2ccc(C(=O)O)cc2)SC1=Nc1ccc(Cl)cc1` (stereo not given): the activation is inactive: -61.2%.

For the compound `Cn1c(=O)c2c(nc(NCCCCO)n2Cc2ccccc2Cl)n(C)c1=O`, the activation is inactive: -3.64%.

`COc1ccc2c(C)c(CCC(=O)NCCc3ccc(OC)c(OC)c3)c(=O)oc2c1`: the activation was active: 68.2%.

On to `COc1ccc(C(=O)Nc2nnc(SCc3cc(=O)c4cccc(F)c4[nH]3)s2)cc1`, for which the activation was inactive: -4.04%.

Regarding `COc1cc2[nH]c(=O)[nH]c(=O)c2cc1OC`, the activation was inactive: 13.4%.

Take `COc1cccc(-c2nnc(SCC(=O)N(C)c3ccccc3)o2)c1`: the activation is inactive: 29.3%.

As for `CCN(CC)CCCNC(=O)Cn1ncc2c3ccccc3n(Cc3ccccc3)c2c1=O`, the activation was inactive: 9.32%.

On to `CCN(CC)c1ccc(NS(=O)(=O)c2cc(-c3onc(C)c3C)ccc2OC)c(C)c1`, for which the activation is inactive: -31.4%.

For `Cc1ccc2c(=O)cc(C(=O)Nc3ccc(S(=O)(=O)N4CCCCC4C)cc3)oc2c1C` (stereo not given), the activation was inactive: 13.6%.

For `CCOC(=O)c1ccc(NC(=O)CC2C(=O)N(c3cccc(OC)c3)C(=O)N2Cc2cccnc2)cc1` (stereo not given), the activation was inactive: -8.97%.

`CC(=O)c1ccc(NC(=O)C(C)n2nc(-c3ccccc3)ccc2=O)cc1` (stereo not given): the activation was inactive: 3.24%.

Turning to `Cc1cc(C)n(C(C)CC(=O)Nc2cccc(C#N)c2)n1` (stereo not given), the activation is inactive: -5.33%.

`CCc1nc(Nc2ccc(F)c(Cl)c2)c2c3c(sc2n1)CCCC3`: the activation is inactive: 19.3%.

`Cc1cccc(C)c1NC(=O)Cn1cc(C(=O)c2ccco2)c2ccccc21`: the activation is inactive: -2.57%.

With `O=C(Cn1ncc2c3ccccc3n(Cc3cccc(Cl)c3)c2c1=O)NCCCc1ccccc1`, the activation is inactive: -15.5%.

Turning to `COc1ccc(-c2c(C)nn3c(-c4ccccc4)cc(C)nc23)cc1OC`, the activation was inactive: -23.4%.

As for `Cc1cc(O)c(C(c2ccccc2)N2CCN(c3ccccc3)CC2)c(=O)n1Cc1ccco1` (stereo not given), the activation was inactive: -18.9%.

As for `CCOc1ccc(-c2nn(-c3ccc(F)cc3)c3c2cnc2ccc(F)cc23)cc1`, the activation is inactive: -1.48%.

In the case of `Cc1ccc2oc(-c3ccc(Cl)cc3)c(O)c(=O)c2c1`, the activation was inactive: 19.3%.

`Cc1cccc(NC(=O)C2CCCN(S(=O)(=O)c3ccc4c(c3)oc(=O)n4C)C2)c1C` (stereo not given): the activation is inactive: -15%.

`COC(=O)c1c(NC(=O)COc2ccc(C)cc2Br)sc2c1CCCC2`: the activation is inactive: 3.02%.

For the compound `CCOc1ccc(N(C)S(=O)(=O)c2cc(-c3cc(C)no3)ccc2OC)cc1`, the activation is inactive: -28.7%.

In the case of `Cc1ccc(CNC(=O)CN(C)S(=O)(=O)c2ccc3c(c2)c(=O)n(C)c(=O)n3C)cc1`, the activation is inactive: 1.86%.

For the compound `COc1cccc(N2C(=O)C(CC(=O)Nc3ccccc3)N(CCc3sccc3C)C2=O)c1` (stereo not given), the activation is inactive: -16.5%.

In the case of `CCCCCCCCCCCCCC(=O)OC(C)C`, the activation was inactive: -8.36%.

As for `CC(O)(P(=O)(O)O)P(=O)(O)O`, the activation was inactive: -18.1%.

On to `CCc1ccccc1NC(=O)CN1C(=O)C2CCCN2c2ccc(S(=O)(=O)N(CC)CC)cc21` (stereo not given), for which the activation was inactive: -14.2%.

As for `CCOC(=O)C(CC)Sc1ncnc2c1c(-c1ccccc1)cn2-c1ccc(OC)cc1` (stereo not given), the activation was inactive: -19.5%.

For the compound `Cc1c(CNC2CCC(C)CC2)c(C(=O)O)c(C)n1Cc1ccc(Cl)cc1` (stereo not given), the activation is inactive: 3.39%.

As to `O=C(CSc1nnc(-c2ccccc2)c(-c2ccccc2)n1)NCCc1ccccc1`, the activation is inactive: -59%.

`CCS(=O)(=O)N1CC(=O)N(c2ccc(Cl)cc2C)C(C)(C(=O)NC2CCCCC2)C1` (stereo not given): the activation was inactive: -3.29%.

Consider `O=C(NCCc1ccc(F)cc1)C(=O)NCC(c1cccs1)S(=O)(=O)c1ccc(Cl)cc1` (stereo not given), for which the activation was inactive: 33.1%.

For `Cc1cc(=O)n(CC(=O)N2CCCc3ccccc32)c2c1c(C)nn2-c1cccc(F)c1`, the activation is inactive: 1.39%.

Take `Cc1cc(C)c(OCC(=O)N(Cc2ccc(N(C)C)cc2)CC2CCCO2)c(C)c1` (stereo not given): the activation is inactive: -7.16%.

As for `CCn1c(=O)c2cc(C(=O)NCc3ccc(F)cc3Cl)sc2c2ccccc21`, the activation is inactive: 9.52%.

Regarding `Cc1ccc(C)c(N(C)C(=O)c2cc3c(s2)-c2ccccc2OC3)c1`, the activation is inactive: -5.25%.

For `COc1ccc2c(c1)c(CC(=O)Nc1cccc(F)c1C)c(C)n2C(=O)c1ccc(Cl)cc1`, the activation was inactive: -9.33%.

With `O=C(Nc1ccc(F)c(F)c1)c1cc(S(=O)(=O)N2CCc3ccccc32)ccc1F`, the activation was inactive: -33.3%.

With `COc1cccc(-n2ccn(CC(=O)Nc3ccccc3F)c(=O)c2=O)c1`, the activation was inactive: 2.73%.

`Cc1ccc(CNS(=O)(=O)c2cc(C(=O)Nc3ccc(C(C)C)cc3)ccc2F)cc1`: the activation is inactive: 9.47%.

For the compound `COc1ccc(C2=C(C)C(N3CCC(C(=O)NCc4ccco4)CC3)=NS2(=O)=O)cc1`, the activation is inactive: -1.8%.

For `CC(C)NC[C@H](O)COc1cccc2[nH]ccc12`, the activation was inactive: -6.92%.

Turning to `CCc1ccccc1NC(=O)Cn1cc(C(=O)c2ccc(Cl)cc2)c(=O)c2ccc(C)nc21`, the activation is inactive: 0.886%.

With `Cc1ccc(CNC(=O)CSCc2nc(-c3ccc(Cl)cc3)oc2C)cc1`, the activation was inactive: -16.3%.

On to `COc1cccc(-c2ccnc3c(-c4ccccc4)c(C)nn23)c1`, for which the activation was inactive: -2.68%.

As for `CCOC(=O)c1[nH]c2ccccc2c1NC(=O)c1cc(OC)cc(OC)c1`, the activation is inactive: -10.7%.

For the compound `Cc1cccc(N2CCN(C(=O)COCc3cc(-c4ccc5c(c4)OCO5)on3)CC2)c1C`, the activation is inactive: -17.2%.

In the case of `COc1ccc(-c2cc(C(=O)NCCc3ccc(Cl)cc3)[nH]n2)cc1`, the activation was inactive: 1.68%.

Turning to `Cc1ccccc1-c1nc2c3c(-c4ccccc4)c(-c4ccccc4)oc3ncn2n1`, the activation was inactive: -17.4%.

Take `CCOc1ccc(NC(=O)N2CCC(CN3CCC(C)CC3)CC2)cc1`: the activation is inactive: 7.92%.

Consider `COc1ccc(-c2cc(C(=O)Nc3cccc(C(C)=O)c3)no2)cc1OC`, for which the activation is inactive: 15.3%.

In the case of `COC(=O)c1ccccc1NC(=O)COCc1cc(-c2cccs2)on1`, the activation is inactive: -8.17%.

Take `CCn1c(=O)n(-c2ccc(F)c(Cl)c2)c(=O)c2sc3ccccc3c21`: the activation is inactive: 30.9%.

Consider `Cc1ccc(CN(C(=O)c2ccc(F)cc2)c2ccccn2)o1`, for which the activation was inactive: -37.7%.

The record behind these values is PubChem BioAssay AID1346428 (National Center for Advancing Translational Sciences (NCATS), 2018).
